Source: PubChem BioAssay AID757 (NMMLSC, 2007)
Screen size: about 190,000 compounds; about 520 (0.27%) were called active. This list was built around the results that the source calls inconclusive (neither active nor inactive); the mix of calls is not that of the screen.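 Rule for the calls: active = GTP binding activity at least 20 points away from the 100% control level, either lower or higher; inconclusive = compound flagged as likely green fluorescent, judged across all proteins; inactive = the rest.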

biological target: Ras-related C3 botulinum toxin substrate 1 (Homo sapiens) (UniProt P63000); test: wildtype Rac1 GTP binding modulators, primary screen, biochemical, GST-Rac1 beads, flow cytometry, multiplex (AID 757); conditions: fluorescent GTP binding, at 10 µM, actives lie on both sides, 0 = cold GTP competed, 100 = untreated

| Structure (SMILES) | GTP binding activity (% of control) |
| --- | --- |
| Cc1nc2c(ccc3c([N+](=O)[O-])cccc32)c(C)c1C | inactive: 103% |
| CSc1nsc(/C=C/Nc2ccc(C)cc2)c1C#N | inactive: 104% |
| Cc1ccc(-n2ncc3c(SCc4cccc(C)c4)ncnc32)cc1 | inconclusive: 100% |
| O=C(NC(=S)Nn1cnc2c(cnn2-c2ccccc2)c1=O)c1ccc(Oc2ccccc2)cc1 | inconclusive: 96% |
| CCCCN1C(=O)C2C(c3ccc(OC)cc3O)NC(CC(C)C)(C(=O)O)C2C1=O (stereo unspecified) | inconclusive: 105% |
| COc1cccc(-n2c(SCC(=O)NCCC3=CCCCC3)nc3n[nH]c(C)c3c2=N)c1 | inactive: 88% |
| Cc1ccc(NS(=O)(=O)c2cc(C(=O)Nc3cccc(N(C)S(C)(=O)=O)c3)ccc2C)c(C)c1 | inconclusive: 99% |
| CCCCCCn1c(-c2cccs2)n[nH]c1=S | inconclusive: 89% |
| Cc1ccc(CSc2nc3[nH]ncc3c(=O)[nH]2)cc1 | active: 77% |
| COC(=O)Cn1cc(/C=C/[N+](=O)[O-])c2ccccc21 | inactive: 93% |
| O=C(Nc1ccccc1)Nc1cccc2cccnc12 | inconclusive: 98% |
| COc1cc2c3nnc(-c4ccc(F)cc4)c-3cn(Cc3cccc(F)c3)c2cc1OC | inconclusive: 137% |
| O=c1[nH]c(CN2CCCC2)nc2sc3c(c12)CCC3 | inconclusive: 141% |
| COc1cc2c(cc1OC)CN(c1nc(-c3cccnc3)nc3ccccc13)CC2 | inactive: 88% |
| CCOC(=O)c1ccc2ncc(-c3ccccc3)nc2c1 | inconclusive: 93% |
| O=C(NNC(=O)C1CCN(S(=O)(=O)c2cccc(C(F)(F)F)c2)CC1)C1CC1 | inconclusive: 98% |
| Cc1cc(C)c(-c2cc(NC(=O)CSc3nncn3C)n(-c3ccccc3)n2)cc1C | inconclusive: 103% |
| Cc1ccc(-c2cc(C(=O)Nc3nn[nH]n3)c3ccccc3n2)c(C)c1 | inconclusive: 98% |
| COCCCN1C(=O)C(=O)/C(=C(/O)c2ccc(C)cc2)C1/C=C/c1ccccc1 (stereo unspecified) | inconclusive: 91% |
| COc1ccc(/C=C(/NC(C)=O)C(=O)O)cc1 | inactive: 95% |
| O=C(O)c1cccnc1SCc1cccc(Cl)c1 | active: 129% [activator] |
| Cc1nccn1CCCNC(=O)CC1C(=O)NCCN1Cc1ccc(Cl)c(F)c1 (stereo unspecified) | inconclusive: 92% |
| Cc1ccc(S(=O)(=O)Nc2ccc3nc(-c4cccn4C)[nH]c3c2)cc1 | inactive: 104% |

| Structure (SMILES) | GTP binding activity (% of control) |
| --- | --- |
| NC(=O)C1CCN(C(=O)COc2ccc(S(=O)(=O)NCc3ccccc3)cc2Cl)CC1 | inconclusive: 101% |
| COC(C(=O)NC1CC1)c1ccccc1 (stereo unspecified) | inconclusive: 102% |
| O=C1/C(=C\c2ccc(-c3ccccc3[N+](=O)[O-])o2)C(c2ccccc2)=NN1c1ccccc1 | inconclusive: 90% |
| O=C(NNC(=S)NC(=O)c1cccs1)c1ccc(NC(=O)c2ccccc2)cc1 | inconclusive: 92% |
| COc1ccc(-c2ccc(S(=O)(=O)NCC3CCCO3)cc2)cc1 (stereo unspecified) | inactive: 103% |
| CCCCCCCC(=O)NN1CCOCC1 | inconclusive: 99% |
| Cc1nnc2ccc(-c3ccc(NC(=O)c4ccco4)cc3)nn12 | active: 75% |
| CCN(CC)S(=O)(=O)c1ccc(-c2nnc(SC)o2)cc1 | inconclusive: 104% |
| COc1ccc(C2C(C(=O)Nc3ccc(OC)c(OC)c3)c3ccccc3C(=O)N2C)cc1 (stereo unspecified) | inactive: 100% |
| COC(=O)c1nnn(CC(=O)Nc2ccc(C)c(F)c2)c1C(=O)OC | inconclusive: 91% |
| CCN(CC)S(=O)(=O)c1ccc(C(=O)NC(=S)N(CCC#N)Cc2cccnc2)cc1 | inconclusive: 98% |
| O=Nc1c(O)n(Cc2ccc(Cl)cc2Cl)c2ccccc12 | inconclusive: 90% |
| CCc1c(C)nc(Nc2nc(C)c3cc(OC)ccc3n2)[nH]c1=O | inconclusive: 93% |
| CCOC(=O)C1(CC2CCCCO2)CCN(S(=O)(=O)c2cccc(F)c2)CC1 (stereo unspecified) | inactive: 101% |
| CCCc1nc2sc3c(=O)n(N)cnc3c2c2c1CCCC2 | inconclusive: 104% |
| CCS(=O)(=O)N1N=C(c2cccc(NS(C)(=O)=O)c2)CC1c1ccc(C)cc1 (stereo unspecified) | inconclusive: 118% |
| Cc1ccc(NC(=O)C2=C(c3ccccc3)S(=O)(=O)CCS2(=O)=O)cc1 | inactive: 83% |
| N#C/C(=C\Nc1ccccc1O)c1nc2ccccc2o1 | inconclusive: 104% |
| CCOc1ccc(-c2ccc(SCC(=O)NCC3CCCO3)nn2)cc1 (stereo unspecified) | inconclusive: 94% |
| CN1CCN(CCCNC(=O)c2cn(C3CCCCC3)c(=O)c3c2c2ccccc2n3C)CC1 | inconclusive: 106% |
| O=c1cnnc(Nc2cccc(F)c2)[nH]1 | inconclusive: 100% |
| COc1cccc(/C=N/Nc2nn3cnnc3c3ccccc23)c1 | inconclusive: 63% |
| Cc1ccccc1C(=O)O/N=C(\c1ccccc1)c1ccccn1 | inconclusive: 106% |
